{"source": "PubChem BioAssay AID504374", "about": "(National Center for Advancing Translational Sciences (NCATS), 2011)", "note": "Where “and” joins values, the source holds several entries; their conditions need not be identical. Equal entries are not always repeated. Screen size: about 1,500 compounds; about 100 (6.7%) were called active. Roughly 7% stayed inconclusive and do not appear here. Calls follow the shape of the dose curve; as a rule, active = well fitted inhibition curve with a large enough effect; inconclusive = small, poorly fitted or top-dose-only effect, or effect the other way; inactive = flat fitted curve, though single readings scatter. The list shows a part of the results. Peptide text beside a SMILES is read from it. * marks the point of attachment. OBn = c1ccc(CO*)cc1", "data": [{"molecular_target": "Runt-related transcription factor 1 (Homo sapiens) + Core-binding factor subunit beta (Homo sapiens) (UniProt Q01196+Q13951)", "sequence (Q01196 whole entry, looked up)": "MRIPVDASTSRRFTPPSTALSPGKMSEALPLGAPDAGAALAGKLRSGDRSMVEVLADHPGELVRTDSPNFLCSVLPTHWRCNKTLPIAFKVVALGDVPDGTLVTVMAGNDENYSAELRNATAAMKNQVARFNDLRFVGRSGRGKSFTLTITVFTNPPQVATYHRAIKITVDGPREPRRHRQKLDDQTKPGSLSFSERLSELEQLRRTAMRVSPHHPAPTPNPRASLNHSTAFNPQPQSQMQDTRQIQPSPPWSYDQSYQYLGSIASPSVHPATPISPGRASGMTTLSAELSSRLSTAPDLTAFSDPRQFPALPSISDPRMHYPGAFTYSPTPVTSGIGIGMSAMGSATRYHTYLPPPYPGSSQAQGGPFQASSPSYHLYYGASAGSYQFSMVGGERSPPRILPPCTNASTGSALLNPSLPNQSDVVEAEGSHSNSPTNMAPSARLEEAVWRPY", "sequence (Q13951 whole entry, looked up)": "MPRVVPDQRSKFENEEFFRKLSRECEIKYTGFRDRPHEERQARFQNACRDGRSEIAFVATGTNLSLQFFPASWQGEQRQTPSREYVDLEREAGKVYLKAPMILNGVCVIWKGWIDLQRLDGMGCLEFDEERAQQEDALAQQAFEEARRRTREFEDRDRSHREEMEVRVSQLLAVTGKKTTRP", "test": "qHTS Assay for Compounds Blocking the Interaction Between CBF-beta and RUNX1 for the Treatment of Acute Myeloid Leukemia: Hit Validation; also: nearly all actives have a fitted effect of over 60% in size; also: potency is read from the fitted curve at half-maximal effect; as to activity, negative = inhibition: % is scaled to controls: 0 for no effect and ±100 for the full control effect", "conditions": "AlphaScreen CBFb-His/RUNX1-biotin binding; series mostly up to 59.8 µM; activity, negative = inhibition: at the top concentration", "summary_of_the_method": "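AlphaScreen proximity assay: His-tagged CBF-beta and biotinylated RUNX1 (30 nM each) preincubated 20 min, then compound 15 min, then nickel and streptavidin beads 90 min, all at room temperature; signal read at […]em 440 nm.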", "values": [{"compound": "c1cnc2ccc3ncccc3c2c1", "activity, negative = inhibition": "inactive: -19.2%"}, {"compound": "O=C(OCC(O)COC(=O)c1cccnc1)c1cccnc1", "activity, negative = inhibition": "inactive: 0.481%"}, {"compound": "COc1ccc(Nc2cc(C)nc(NCc3ccccc3)n2)cc1", "activity, negative = inhibition": "inactive: -19.2%"}, {"compound": "O=C(Nc1ccccc1)N1CCN(C2c3ccccc3-c3ccccc32)CC1", "activity, negative = inhibition": "inactive: -3.73%"}, {"compound": "CCCC(=O)Nc1ccc2c(c1)nc(CCNC(=O)c1ccco1)n2C", "activity, negative = inhibition": "inactive: -9.7%"}, {"compound": "COc1ccc(NC(=O)O/N=C/c2ccccc2Cl)cc1", "activity, negative = inhibition": "inactive: -2.18%"}, {"compound": "CCC1=NN(C(=O)Cc2ccc([N+](=O)[O-])cc2)C(O)(C(F)(F)F)C1", "note": "(stereo not drawn)", "activity, negative = inhibition": "inactive: -5.5%"}, {"compound": "O=C(c1cccnc1)C1Cc2ccccc2C1=O", "note": "(stereo not drawn)", "activity, negative = inhibition": "inactive: 12%"}, {"compound": "NC(=O)c1ccc(NC(=O)COC(=O)/C=C/c2ccc3c(c2)OCO3)cc1", "activity, negative = inhibition": "inactive: -5.29%"}, {"compound": "Cc1nc(N)nc(Nc2ccc(C#N)cc2)c1Br", "activity, negative = inhibition": "inactive: -2.94%"}, {"compound": "Cc1ccc(C(=O)/C=C/N(C)C)cn1", "activity, negative = inhibition": "inactive: -6.06%"}, {"compound": "CSc1ccc(NC(=O)Nc2cc(C)ccn2)cc1", "activity, negative = inhibition": "inactive: -4.53%"}, {"compound": "CCCN1CN=C(Nc2nc3ccccc3o2)NC1", "activity, negative = inhibition": "inactive: -3.71%"}, {"compound": "Cc1[nH]n(-c2ccccc2)c(=O)c1C=Nc1cccc(F)c1", "activity, negative = inhibition": "inactive: -6.77%"}, {"compound": "COC(=O)c1sccc1S(=O)(=O)Nc1ccc(Cl)cc1", "activity, negative = inhibition": "inactive: -4.96%"}, {"compound": "C/C(Cc1ccccc1)=N\\NC(=O)CNC(=O)c1ccc(Cl)cc1Cl", "activity, negative = inhibition": "inactive: -21.7%"}, {"compound": "CCC(=O)NC1(C(F)(F)F)C(=O)Nc2c1c(=O)[nH]c(=O)n2CC(C)C", "note": "(stereo not drawn)", "activity, negative = inhibition": "inactive: -5.35%"}, {"compound": "CNS(=O)(=O)c1cc(Cl)ccc1Sc1ccccc1C(=O)O", "activity, negative = inhibition": "inactive: -0.435%"}, {"compound": "O=c1c(O)cccc2cc(O)c(O)c(O)c12", "Potency": "active: 447 nM and active: 631 nM"}, {"compound": "O=[N+]([O-])c1ccc(-c2cn3c(n2)CCC3)cc1", "activity, negative = inhibition": "inactive: -6.5%"}, {"compound": "CN(C(=O)C(Cl)Cl)C1CC2C=CC1C2", "note": "(stereo not drawn)", "activity, negative = inhibition": "inactive: 4.91%"}, {"compound": "Cc1cccc(C)c1N1C(=O)[C@@H]2C(c3ccccc3Cl)=NO[C@@H]2C1=O", "activity, negative = inhibition": "inactive: -3.08%"}, {"compound": "Cn1c2ccccc2c(=O)c2c(=O)n(Cc3ccccc3)c(-c3ccc(F)cc3)nc21", "activity, negative = inhibition": "inactive: -3.32%"}, {"compound": "CCOc1ccccc1/C=C(/C#N)C(N)=O", "activity, negative = inhibition": "inactive: 2.38%"}, {"compound": "COCc1cc(=O)n2[nH]c(C(C)(C)C)cc2n1", "activity, negative = inhibition": "inactive: 5.53%"}, {"compound": "CCc1c(C#N)sc(C(N)=O)c1CC", "activity, negative = inhibition": "inactive: -3.2%"}, {"compound": "CCCOc1ccc(C(=O)NC(=S)NNC(=O)c2c(-c3ccccc3)noc2C)cc1", "activity, negative = inhibition": "inactive: -17%"}, {"compound": "O=C(NN1C(=O)C2CCCCC2C1=O)c1ccco1", "note": "(stereo not drawn)", "activity, negative = inhibition": "inactive: -3.88%"}, {"compound": "NC(=O)C1CCN(c2c([N+](=O)[O-])cc(C(F)(F)F)cc2[N+](=O)[O-])CC1", "activity, negative = inhibition": "inactive: -3.87%"}, {"compound": "O=C(NCCC(=O)N1CCOCCOCCOCCOCC1)OCc1ccccc1", "activity, negative = inhibition": "inactive: -6.47%"}, {"compound": "Cc1cc(=O)[nH]c2c1c(-c1ccccc1)nn2C", "activity, negative = inhibition": "inactive: -3.66%"}, {"compound": "C=CCn1c(SCc2n[nH]c(=S)n2-c2ccccc2)nnc1-c1ccccc1", "activity, negative = inhibition": "inactive: -1.11%"}, {"compound": "Clc1ccc(-c2nnc(N3CCOCC3)o2)cc1", "activity, negative = inhibition": "inactive: -2.32%"}, {"compound": "Cc1ccc(C)c(-n2c(-c3ccc(Br)cc3)csc2=NC(=O)c2ccccc2F)c1", "activity, negative = inhibition": "inactive: 7.68%"}, {"compound": "Cn1nc(-c2ccccc2)cc1NS(=O)(=O)c1ccc(C#N)cc1", "activity, negative = inhibition": "inactive: -2%"}, {"compound": "CCCn1nnc(NC(=O)c2ccc3c(c2)OCO3)n1", "activity, negative = inhibition": "inactive: 4.12%"}, {"compound": "Cn1cccc1/C=C(\\C#N)C(N)=S", "activity, negative = inhibition": "inactive: -1.76%"}, {"compound": "C/C(Cc1ccccc1)=N\\NC(=O)CNC(=O)COc1cccc(C)c1", "activity, negative = inhibition": "inactive: -6.91%"}, {"compound": "COC(=O)C1=C(N)Oc2c(oc(CO)cc2=O)C1c1ccc(F)cc1", "note": "(stereo not drawn)", "activity, negative = inhibition": "inactive: -11.5%"}, {"compound": "O=C(O)c1cc(NN=C2CCN(Cc3ccccc3)CC2)ccc1Cl", "activity, negative = inhibition": "inactive: -7.68%"}, {"compound": "Cc1ccc(C)c(C(=O)CCC(=O)O)c1", "activity, negative = inhibition": "inactive: -2.23%"}, {"compound": "c1ccc(-c2nnc(N3CCN(c4ccccc4)CC3)nc2-c2ccccc2)cc1", "activity, negative = inhibition": "inactive: -7.28%"}, {"compound": "O=C(Nc1ccc(Nc2ccncc2)cc1)c1ccc(Nc2ccnc3ccc([N+](=O)[O-])cc23)cc1", "activity, negative = inhibition": "inactive: 2.04%"}, {"compound": "Cc1ccccc1NC(=S)Nc1ccccn1", "activity, negative = inhibition": "inactive: 1.57%"}, {"compound": "CCc1c(-c2ccccc2)[n+](=O)c2c(n1[O-])CCC2", "activity, negative = inhibition": "inactive: -0.602%"}, {"compound": "CC(C)(C)c1cc(NCc2ccccn2)n2ncc(-c3ccc(Cl)cc3)c2n1", "activity, negative = inhibition": "inactive: -4.6%"}, {"compound": "CCOC(=O)C(=CNc1cccnc1Oc1ccc(C)c2c1CCC2)C(=O)OCC", "activity, negative = inhibition": "inactive: 0.499%"}, {"compound": "CC(=O)NCC(=O)N[C@@H](CC(=O)OCc1ccccc1)C(=O)OCc1ccccc1", "note": "(Ac-Gly-Asp(OBn)-OBn)", "activity, negative = inhibition": "inactive: 0.629%"}, {"compound": "CCC(=O)N1N=C(c2ccc(C)cc2)CC1c1ccco1", "note": "(stereo not drawn)", "activity, negative = inhibition": "inactive: -5.68%"}, {"compound": "COc1ccc(-c2c[n+]3c(n2-c2ccc(C)cc2)CCCCC3)cc1", "activity, negative = inhibition": "inactive: 3.98%"}, {"compound": "O=C(O)COCC(=O)N1CCN(C2c3ccccc3-c3ccccc32)CC1", "activity, negative = inhibition": "inactive: -2.67%"}, {"compound": "CCOc1ccc(N2C(=O)S/C(=C\\c3cc(OC)c(OC)c(OC)c3)C2=O)cc1", "activity, negative = inhibition": "inactive: 3.75%"}, {"compound": "COc1c(NC(C)=O)c2ccccc2c2ccccc12", "activity, negative = inhibition": "inactive: -0.619%"}, {"compound": "N#CC(C(=O)c1ccccc1Cl)=C1SCCCS1", "activity, negative = inhibition": "inactive: 2.29%"}, {"compound": "O=C1CCN(S(=O)(=O)c2ccc(Cl)cc2)CCN1", "activity, negative = inhibition": "inactive: 2.7%"}, {"compound": "[O-]/[N+](=C\\C=C\\c1ccccc1)c1ccccc1", "activity, negative = inhibition": "inactive: 0.917%"}, {"compound": "O=C1CCCN1CCCNC(=S)Nc1ccccc1", "activity, negative = inhibition": "inactive: -7.84%"}, {"compound": "CCCOc1ccc(-c2nc(-c3ccc([N+](=O)[O-])cc3)cs2)cc1", "activity, negative = inhibition": "inactive: -3.28%"}]}]}
